Results: patent US5618830A (priority 1995, dated 1997)
Structures can show the parent of a compound that is named as a salt.

Target: HIV Reverse Transcriptase (Human immunodeficiency virus type 1 group M subtype B, UniProt P04585)
Assay: HIV Reverse Transcriptase assay
Assay type: biochemical

O=C(O)C(=O)CC(=O)C1(Cc2ccc(Cl)cc2)CCCN(Cc2ccccc2)C1 (stereo not shown) [Compound A, 4-[N-benzyl-3-(4-chlorobenzyl)piperidin-3-yl]2,4-dioxobutanoic acid hydrochloride]
IC50: > 300 µM
